Results from the supplement of paper PMC3334620.
Whole data set: some 33,000 sequences, median “E-score (-0.5 to 0.5)” near -0.016, cut for the highest 2% near 0.32. The list shows a part of the results.

biological target: T1, Stp1 (UniProt B3LFK1); assay: PBM E-score (8-mer binding enrichment) (E-score (-0.5 to 0.5)); higher = stronger / more preferred TF binding; most listed sequences are background and not binding sites; conditions: protein concentration: 200 nM; construct: GST-full length
T1 sequence: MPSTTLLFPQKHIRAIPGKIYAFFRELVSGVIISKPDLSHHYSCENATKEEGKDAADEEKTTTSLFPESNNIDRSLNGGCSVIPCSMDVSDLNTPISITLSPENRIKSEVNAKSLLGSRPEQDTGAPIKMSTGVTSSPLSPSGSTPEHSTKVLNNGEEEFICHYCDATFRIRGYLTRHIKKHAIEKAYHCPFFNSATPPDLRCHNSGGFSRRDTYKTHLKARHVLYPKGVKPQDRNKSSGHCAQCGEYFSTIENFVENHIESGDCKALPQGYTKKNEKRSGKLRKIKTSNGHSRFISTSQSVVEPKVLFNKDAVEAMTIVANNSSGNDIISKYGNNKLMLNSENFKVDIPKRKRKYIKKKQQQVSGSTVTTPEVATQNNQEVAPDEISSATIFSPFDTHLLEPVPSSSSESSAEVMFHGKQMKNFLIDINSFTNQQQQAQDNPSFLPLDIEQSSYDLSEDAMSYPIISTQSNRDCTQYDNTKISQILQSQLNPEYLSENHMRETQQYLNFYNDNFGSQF
Outline: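 E-scores (a modified Wilcoxon-Mann-Whitney statistic) were assigned by the Universal PBM Analysis Suite to every ungapped eight-base word pooled with its reverse complement. The input came from universal all-10-mer Agilent arrays made double-stranded by primer extension and probed with GST-tagged yeast transcription factors at about 100-200 nM. Fluorescent anti-GST detected bound protein, and masliner normalised the scans.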

Sequence | PBM E-score
ACCTGCTG | -0.0848
AAACCCGA | 0.104
GGTTGAAA | 0.0306
AAGTGTAC | -0.111
CGCAAACC | 0.0345
GTGATTGA | 0.144
AGGAGTTC | -0.206
AACTTCAG | -0.15
CCATATTA | 0.14
TAGTGTAA | 0.166
ATCAAGTG | -0.0832
TATGCCCA | -0.122
AAATGCAC | 0.0093
TCCATGGA | 0.173
GAGATAGA | -0.0115
GGCCTCTA | -0.133
CCTACCTC | -0.304
CGGGCAAG | 0.052
CTACTGAA | 0.167
TACTTCAA | 0.0503
GTCGGGAA | -0.0823
CCCCCGTA | -0.238
CCAAATTC | 0.011
AGGGGACA | -0.145
ATTGTAGG | 0.196

Sequence | PBM E-score
CCCTGGAG | -0.332
CTATATTA | 0.177
CCCATAGC | -0.263
ATGACCCA | -0.144
CGTTCATC | 0.0052
AAGAAGTG | -0.0361
ATTACAGA | 0.0669
ATACGTAC | 0.197
GGTGGCAA | -0.136
AGAGTTGG | -0.146
CGATAAGA | 0.0597
CAACGTAA | 0.0354
ATAATTGC | 0.113
CGTCTGAG | 0.0535
CAAGGTAC | -0.0837
CATGTCTC | -0.169
TCGTACCA | 0.0286
ACTGCGCT | -0.19
ACGGATTA | 0.159
AATGTGAA | 0.125
CTAAACCA | -0.138
ATATCATC | 0.115
AACCTCAC | -0.205
CCACCACG | -0.0478
GCCAAGCC | -0.127

Sequence | PBM E-score
CCAGTCTC | -0.199
GCCGCGCC | 0.46
GCTACCAA | -0.117
AGATAGTG | 0.0428
ACTGGAGG | 0.0177
AGGCTTCA | -0.0829
ATGTTCCA | -0.0898
CCTAGAAG | -0.0172
CTGAATTC | -0.0371
ACTCTGGA | 0.0868
ATAGGGAC | -0.211
TAGGCCTA | -0.236
GCCTCGAA | 0.136
GCGTTGCA | 0.19
AAAGCCTG | -0.0846
GATCAACC | -0.208
ACACAGTG | -0.0507
TAAGAACA | 0.297
GTTCTTTA | -0.0057
GATACGCA | 0.057
GAGCAGGA | -0.121
GGGGCACA | 0.0124
GGCAAGAA | 0.22
ATTCATGC | -0.0305
GTTCGCTA | 0.146

Sequence | PBM E-score
AGCAACGA | 0.0731
ACCCTGAA | -0.0806
TCTAATAA | 0.183
ACGTATGC | 0.00677
AGCCACCA | -0.131
ATATATAG | 0.318
AAGGGTGG | -0.288
ATTGAGGA | -0.0544
CCAGGGGA | -0.182
CTTACCGA | 0.0792
AAGCATGA | -0.0275
TCGCGACA | -0.0531
AGAATTTA | 0.0596
TCGTTTAA | 0.0364
AATGATGA | -0.12
CTGGGATA | -0.0426
TCGCTCAA | -0.0935
TCGCAAAA | 0.138
GGCGATAC | 0.179
GCAACACC | 0.12
CGATGGTA | -0.0571
CAAAGGAC | -0.198
ATTTTTAA | 0.222
ACGCGCCA | 0.0175
AGTCAAGC | -0.4

Sequence | PBM E-score
AGCTACGG | 0.0711
TCGCGAGA | 0.0306
AATAACGG | 0.265
GACGATGC | 0.0605
CCACCCAA | -0.136
CTCCATCA | -0.0704
GGTGGCAC | 0.147
ATAAGGAG | -0.147
CTCCTGTC | -0.0571
GCCGTTAC | 0.268
AAAAATGA | 0.0138
CAACAAGG | 0.178
CTGTGCAC | -0.0277
CGAAACCG | 0.161
CAACTATC | -0.0556
GCCACAGA | 0.057
AATGGGCA | 0.0749
AGATCGGG | -0.328
GCGTCGGA | 0.106
CCTATTCC | 0.0452
ATAAAAGA | 0.0121
GCTCTAAA | 0.0828
GTGGCGCA | 0.3
CTACGATA | 0.0401
AGGTTATC | -0.12

Sequence | PBM E-score
CCGTCCAC | 0.22
TCCTGAAA | 0.0222
AATGAAAA | 0.191
AATGGTGG | -0.267
ACTGTCGG | -0.0575
AGACTGTA | -0.0982
ATCACGTC | -0.00103
AGCAGAAT | 0.0608
CGGTTTAG | -0.194
GGGTGACA | -0.224
AGTCGGAA | 0.109
TCCAGCAA | -0.116
TAAACACA | 0.059
AGGATCCG | -0.223
ATGTCAAC | -0.0864
ACAAAGCC | 0.208
AGGTTCGA | -0.069
AATGATTG | 0.0683
ATCTGGGA | -0.14
CAAGGGCG | 0.0905
CTCCTTCC | -0.223
ACGCAGAT | -0.0383
CGCGCATC | 0.0783
ATGAATAA | -0.00029
AGGGAACT | -0.197

Sequence | PBM E-score
GCTATGGA | -0.225
GACGGACC | 0.0496
ACAGTATC | 0.197
AGCTAACT | 0.0936
ATATATGC | 0.0932
GAATCAGA | 0.101
AGATAGAC | -0.046
CTGCTTGA | -0.179
ACGCTTGG | -0.23
CAAGATTC | 0.0354
ACCAGTCC | -0.289
ACTTTTTG | 0.00254
GTACTACA | 0.16
TAGAATGA | 0.0457
GCCGCGAC | 0.282
AATCATCG | -0.0964
GGGCGACA | 0.0209
GAGGAATA | 0.0135
ATCCCGAG | 0.00351
ATTAGGCC | -0.0584
CATGTTAA | 0.181
GCCCCGGC | -0.156
